# The supplement of paper PMC10670038
# Where a name gives a salt, the structure may show the parent alone. ± gives the standard deviation of the averaged measurements. In all, about 2,000 compounds were measured (“relative cell viability vs DMSO, compound alone”: median about 1.1, lowest 2% from about 0.29 on). The list shows a part of the results.
# Tested on: TE10
# Experiment: relative cell viability vs DMSO, compound alone (fraction); TE10 is an esophageal squamous carcinoma line; higher = less cytotoxic
# Settings: 2 µM; 48 h
# Description: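 TE10 ESCC cells (1,000/well, 384-well plates) were treated with Selleck bioactive library compounds at 2 uM alone for 48 h. Viability was read by CellTiter-Glo and expressed relative to DMSO wells. Two technical replicates (A, B).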
row,SMILES,relative cell viability
1,Oc1cc2c(cc1O)[C@@H]1c3ccc(O)c(O)c3OC[C@]1(O)C2 [Hematoxylin],1.11 ± 0.062
2,COc1ccc(CC2c3cc(OC)c(OC)cc3CC[N+]2(C)CCC(=O)OCCCCCOC(=O)CC[N+]2(C)CCc3cc(OC)c(OC)cc3C2Cc2ccc(OC)c(OC)c2)cc1OC (stereo not given) [Atracurium Besylate],0.9864 ± 0.0063
3,CC(=O)[C@H]1CC[C@H]2[C@@H]3CC=C4C[C@@H](O)CC[C@]4(C)[C@H]3CC[C@]12C [Pregnenolone],1.099 ± 0.007
4,CN(C)c1ccc(C(=C2C=CC(=[N+](C)C)C=C2)c2ccc(N(C)C)cc2)cc1 [Crystal Violet],0.278 ± 0.006
5,O=C(c1ccc(OCCCc2c[nH]cn2)cc1)C1CC1 [Ciproxifan],1.08 ± 0.011
6,CC(C)[C@H](N)C(=O)OCC(CO)OCn1cnc2c(=O)[nH]c(N)nc21 (stereo not given in full) [Valganciclovir HCl],0.85 ± 0.028
7,CN1CCC[C@@H]1CCO[C@](C)(c1ccccc1)c1ccc(Cl)cc1 [Clemastine Fumarate],0.994 ± 0.011
8,CCOc1ccc(NC(C)=O)cc1 [Phenacetin],0.982 ± 0.16
9,CN1CCN(c2nc(C3=C(c4c[nH]c5ccccc45)C(=O)NC3=O)c3ccccc3n2)CC1 [Sotrastaurin],0.995 ± 0.13
10,COc1cc2ncnc(Nc3ccc(F)c(Cl)c3)c2cc1OCCCN1CCOCC1 [Gefitinib (ZD1839)],1.19 ± 0.075
11,CC(C(=O)O)c1ccc(C(=O)c2cccs2)cc1 (stereo not given) [Suprofen],1.13 ± 0.023
12,CCCCC[C@H](O)/C=C/[C@H]1[C@H](O)CC(=O)[C@@H]1CCCCCCC(=O)O [Alprostadil],1.1 ± 0.021
13,COC(=O)[C@]12CCC(C)(C)C[C@H]1[C@H]1C(=O)C=C3[C@@]4(C)C=C(C#N)C(=O)C(C)(C)[C@@H]4CC[C@@]3(C)[C@]1(C)CC2 [Bardoxolone Methyl],0.272 ± 0.0085
14,NC1=N[C@@](c2cccc(-c3cncnc3)c2)(c2ccnc(C(F)F)c2)c2cccc(F)c21,1.19 ± 0.027
15,CC[C@@H]([C@H](C)O)n1ncn(-c2ccc(N3CCN(c4ccc(OC[C@@H]5CO[C@@](Cn6cncn6)(c6ccc(F)cc6F)C5)cc4)CC3)cc2)c1=O [Posaconazole],1.1 ± 0.015
16,O=C(O)c1ccccc1 [Benzoic Acid],1.09 ± 0.0064
17,Cc1ccccc1N=Nc1ccc(NC(=O)c2ccnn2C)c(C)c1,1.112 ± 0.01
18,CCc1oc2ccccc2c1C(=O)c1cc(Br)c(O)c(Br)c1 [Benzbromarone],1.11 ± 0.08
19,CC/C(=C(\c1ccccc1)c1ccc(OCCN(C)C)cc1)c1ccccc1 [Tamoxifen Citrate],1.1 ± 0.033
20,Cn1cc(-c2ccc(S(=O)(=O)n3ccc(/C=C/C(=O)Nc4ccccc4N)c3)cc2)cn1,0.838 ± 0.03
